Results: the supplement of paper PMC11417369
Some of the results follow.

tested on: PfAP2-HC AP2 domain (GST-tagged); assay: gcPBM binding intensity (ln(normalized median fluorescence intensity)); higher = stronger DNA binding
Method in brief: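 DNA-binding domains from P. falciparum, fused to GST and produced in E. coli, were put on an Agilent 4 × 180k double-stranded probe array for 1 h in 1× PBS holding 1% milk, 0.2 mg/ml BSA, 0.5% salmon testes DNA and 0.03% Triton X-100. Probes were primer-extended, 36 bp long and drawn from intergenic genomic regions, with negative controls included. After Alexa488 anti-GST antibody detection and a 488 nm scan, binding intensity was set as the highest Masliner-normalised natural-log median intensity across replicate spots of either probe orientation.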

| Sequence | gcPBM binding intensity (ln) |
| --- | --- |
| AAAGTAAAAGGGTTTGGTACACATATAATATATTAG [XGTACX_site6036] | 9.73 |
| CATTTATATAAAGAATGTACACACAGAAATGCACAC [XGTACX_site4718] | 10 |
| ATAACTTTTATTTGTACACACATACATCTATATTAT [CACACA_site6595] | 10.2 |
| AGTAAAAGAAAGCACACACACATGTATTTATGTATG [CACACA_site5998] | 10.9 |
| GTAATTTTTTTCTATACACACATATATATAATATAT [CACACA_site2655] | 9.96 |
| AATATAAATATAAATATAAATAAATAAATAAATAAA [CACACA_negctrl_site291] | 9.75 |
| TATACGTGTTTTATTTGTACTTAAGCAGGTAAGCAT [XGTACX_site193] | 9.55 |
| CTATATATTTTTTCTTAACACACATATATAAAATAA [CACACA_site9165] | 9.34 |
| TATATGTATCCATTATGTACATAATAGTAATATAAT [XGTACX_site4008] | 9.72 |
| TATATTTATTTTCTGTGTACACATATGTTGTGTATT [XGTACX_site7640] | 9.93 |
| AAAACCTAGTGCATTTGTACATATTTCAATTTTAAA [XGTACX_site4582] | 9.59 |
| TAAAAAATACAAGAGTGTACAAAATTTTTCTAAATG [XGTACX_site5334] | 9.77 |
| AATATAAATGTGATTACACACAACAGATTTAAATGG [CACACA_site4802] | 10.1 |
| TTATTTTTTAATTATATTCAAAATTAAAAAAAAAAA [XGTACX_negctrl_site226] | 8.71 |
| ATTGATAAATTAACTAGTACACATATAAATATATTA [XGTACX_site2325] | 9.57 |
| ATTAAAAAAAAAAAAAAAAAAAAAAAAAAAAAAAAA [CACACA_negctrl_site1060] | 8.97 |
| AACAATAATTTTGAATGTACATATAAATATTTTTAT [XGTACX_site5501] | 9.62 |
| ATATACATATAGGATGCACACATAATTCAAATACAA [CACACA_site8120] | 10.2 |
| AAAAAAAAGAATAGCACACACACATATATAAATATA [CACACA_site630] | 10.5 |

| Sequence | gcPBM binding intensity (ln) |
| --- | --- |
| TATAATGGTTCTGGTGTGCACCATGACAGAATCAAG | 9.61 |
| TCTTATAAAGGTAATTGTACATATTTATAATTTCTT [XGTACX_site4847] | 9.58 |
| GTGAAAGGAAAAGTTGAACACACAAAGTAAACTATA [CACACA_site9178] | 9.9 |
| AATAATATTTAATACGCACACAATAATAATATAAAA [CACACA_site1763] | 10.1 |
| CACACGCACGAACACACACACATATAAATATAAATA [CACACA_site6299] | 10.2 |
| ATATATTATTATACATGTACATATATAGATATATAT [XGTACX_site4358] | 9.7 |
| TATATTTTTATTGAACGTACAAAAAGTCGAAAACAG [XGTACX_site3967] | 9.56 |
| TTTAAATACAGACATACACACATACACGCACATATA [CACACA_site6400] | 10.5 |
| AGGTAGAAATTGTTAAAAAATCATACATATTATATA [CACACA_negctrl_site622] | 9.52 |
| GTTAATTCTATGAATTGTACTTAAATATAATTATAT [XGTACX_site2785] | 9.33 |
| ATAAATACTAAAAATGAAATATAGAAAATAGCAATA [CACACA_negctrl_site501] | 9.82 |
| CAAAATAAAAATAACACACACATTTATATAAATACA [CACACA_site4790] | 10.2 |
| ACAGTTAAAACAATAACACACAAAGAAAAAAAAAAA [CACACA_site737] | 9.8 |
| TATAATATATTATATACACACATTATAAAATACCCA [CACACA_site4858] | 9.83 |
| GAAAAAAGAAATTTATGTACATACATATATATATAT [XGTACX_site7888] | 9.74 |
| ATATGTAAAATATGGGGTACGAAGGTAGGTAGGTAA [XGTACX_site1392] | 10.1 |
| ATTCTATATGTTACATAAACCTATATTTTTTTTTTT [CACACA_negctrl_site860] | 9.58 |
| ATAAAGCCATACAATACACACATTTTACATGTCGGT [CACACA_site3265] | 9.98 |
| TAAGCCACCATATTTACACACACATCAAAATGTATT [CACACA_site1815] | 10.1 |

| Sequence | gcPBM binding intensity (ln) |
| --- | --- |
| TAAATAATATAATTATGTACGTATTTCTTTATTTTA [XGTACX_site8410] | 9.61 |
| GCTGAAAATAAATGAAGTACACAAGTAATATATATA [XGTACX_site6205] | 9.75 |
| TAATATTGACTATATACACACATATAAATATAAATA [CACACA_site6414] | 9.74 |
| TATATATATATATATACATGCATCATTGTTCACCTT [TGCATGCA_site177] | 9.77 |
| TTTTTTTTTTAATTAACACACATAAATATAAATATA [CACACA_site7527] | 9.49 |
| AAAAAAAAAAAAAAAAGTACATATGCTCAAGAGATG [XGTACX_site3783] | 9.54 |
| CATTCAAAGAAAAACAGTACGTGTAGCAAAAGGCCT [XGTACX_site266] | 9.69 |
| TGAATAAAATATTATACACACATATGTATTTAACAT [CACACA_site4694] | 9.79 |
| TTGTATTTACTATACACACACATACATACATACATA [CACACA_site4603] | 10.2 |
| AATGGGATCATGGTATGTACTTACACAAATGAATTA [XGTACX_site5389] | 9.61 |
| ATCATTTAAACAATATGTACTCATTGTAGATATGGT [XGTACX_site5088] | 9.55 |
| ATATATATATATATGTGTACATATTAGTGATATAAT [XGTACX_site7161] | 9.83 |
| AATGCGCATTTTTTTTTTTTTTTTTTTTTTTTTTTT [XGTACX_negctrl_site258] | 9.32 |
| CGTTACACAAAAATATGTACATATATACATATATAT [XGTACX_site4631] | 9.86 |
| TATAAATATAAATACTGTACATTATATTATATAATA [XGTACX_site2480] | 9.5 |
| TATTCCCCCAAACACACACACACACCCACATACCAC [CACACA_site2304] | 10.7 |
| TAAAAATAATATTAATGTACATTACATATTAATATA [XGTACX_site1019] | 9.45 |
| GAAAAAAAAATATCTTGTACTTACATAACTATTGGT [XGTACX_site5326] | 9.55 |
